Not every entry of the source has a single result; some have several. This list holds those alone. The rule behind the calls is not given here. An entry can have further records. Values that stand side by side repeat one measurement in other runs, samples, wells, individuals or studies. What stands in brackets tells the records apart. Letters hold for one entry only.

The subject of the series is CCRIS mutagenicity, Ames/micronucleus/aberration tests. Kind of series: CCRIS mutagenicity studies.
Setting [1] is: Test System: AMES SALMONELLA TYPHIMURIUM, Strain/Indicator: TA98, Metabolic Activation: NONE, Method: STANDARD PLATE.
[2] abbreviates: Test System: AMES SALMONELLA TYPHIMURIUM, Strain/Indicator: TA100, Metabolic Activation: NONE, Method: STANDARD PLATE.

Regarding `Cc1ccc2nc3c(cc2c1)-c1cccc2cccc-3c12`, the mutagenic call by setting is: under setting [1], “inactive; negative [sample A, 25 to 100 µg/plate] and active; positive [sample B, 2.5 to 10 µg/plate]”; (Test System: AMES SALMONELLA TYPHIMURIUM, Strain/Indicator: TA98, Metabolic Activation: RAT, LIVER, S-9, Method: STANDARD PLATE) “inactive; negative [sample A, 25 to 100 µg/plate] and active; positive [sample B, 2.5 to 10 µg/plate]”; under setting [2], “inactive; negative [sample A, 25 to 100 µg/plate] and active; positive [sample B, 2.5 to 10 µg/plate]”; (Test System: AMES SALMONELLA TYPHIMURIUM, Strain/Indicator: TA100, Metabolic Activation: RAT, LIVER, S-9, Method: STANDARD PLATE) “inactive; negative [sample A, 25 to 100 µg/plate] and active; positive [sample B, 2.5 to 10 µg/plate]”.

Regarding `c1ccc2c(c1)cc1ccc3cccc4ncc2c1c34`, the mutagenic call by setting is: under setting [1], “inactive; negative [study A, 0.1 to 50 µg/plate] and active; positive [study B, 0 to 50 µg/plate]”; under setting [2], “inactive; negative [study A, 0.1 to 50 µg/plate] and active; positive [study B, 0 to 50 µg/plate]”.

As for `COS(C)(=O)=O`, the mutagenic call (Test System: AMES SALMONELLA TYPHIMURIUM, Strain/Indicator: TA1535, Metabolic Activation: NONE, Method: PREINCUBATION) was “active; positive [study A, 0 to 12 µmol/plate] and inactive; negative [study B] and active; positive [study C, 0 to 12 µmol/plate]”.

Consider `O=C1C(Cl)=C(Cl)C(=O)c2ccccc21`, for which the mutagenic call (Test System: AMES SALMONELLA TYPHIMURIUM, Strain/Indicator: TA100, Metabolic Activation: NONE, Method: PREINCUBATION) was “active; positive [study A] and inactive; negative [study B]”.

Regarding `c1cc2ccc3cccc4ccc(c1)c2c34`, for the setting “Test System: AMES SALMONELLA TYPHIMURIUM, Strain/Indicator: TA100, Metabolic Activation: RAT, LIVER, S-9, AROCLOR 1254, Method: STANDARD PLATE”, the mutagenic call was “inactive; negative [study A] and active; positive [study B]”.

As for `O=C1OC(O)C(C(Cl)Cl)=C1Cl` (stereo unspecified), where the note is “Test System: CHINESE HAMSTER V-79, Strain/Indicator: V-79/6-THIOGUANINE, Metabolic Activation: NONE”, the mutagenic call is “active; positive [0.5 to 5 µg/mL] and inactive; negative [2 to 50 µg/mL]”.

With `O=C1C=Cc2ccccc2C1=O`, the mutagenic call (Test System: AMES SALMONELLA TYPHIMURIUM, Strain/Indicator: TA102, Metabolic Activation: NONE, Method: PREINCUBATION) is “inactive; negative [study A] and active; positive [study B]”.

The values are drawn from PubChem BioAssay AID1259407 (Chemical Carcinogenesis Research Information System (CCRIS), 2018).
